Reference: PubChem BioAssay AID588692 (Broad Institute, 2011)
Among all 360,000 compounds or so, about 830 (0.23%) were called active. Inconclusive means that the source gave no clear call. Such entries were picked first, then a sample of the others.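 Rule for the calls: active = mean luciferase reporter signal, scaled so untreated is 0 and the glycosylation-blocking control 100, at or above a set limit in every replicate; inconclusive = mean reaches the limit but not every replicate does; inactive = mean below the limit.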

Assay: increase of ERlucT glycosylation luciferase signal, primary screen, N-linked glycosylation inhibitor project, D54 ERlucT cells, luminescence, set 2 (AID 588692);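 note: luciferase carries N-glycosylation sites so blocking glycosylation raises the light; 0% = median of neutral control wells and 100% = median of 100 nM tunicamycin wells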
Settings: 24 h, at 12.5 µM, hits give high values, percent of 100 nM tunicamycin response

Row | SMILES | reporter increase
1 | CNC(=O)c1cccc2nc3ccccc3nc12 | active: 39.1%
2 | CCOC(=O)N1CCC(NC(=O)c2ccc3c(c2)N=C(C)c2c(C)ccc(C)c2S3)CC1 | inconclusive: 25.6%
3 | COc1ccc(/C=N/NC(=O)c2ccc(COc3ccccc3Cl)o2)c(OC)c1C | active: 43.3%
4 | COc1cccc(OCc2nc3ncc(Br)cc3[nH]2)c1 | inconclusive: 30.2%
5 | COc1ccc(C2=NOC(C(=O)NCc3ccco3)C2)cc1 (stereo not drawn) | inconclusive: 28%
6 | COC(=O)c1c(NC(=O)c2cccnc2Cl)sc(C(=O)N(C)C)c1C | inconclusive: 25.5%
7 | Cc1c(Cl)ccc2c(C(=O)Nc3cc(C(C)(C)C)on3)cc(-c3ccccn3)nc12 | inconclusive: 25.3%
8 | COc1ccc(NC(=O)COC(=O)/C=C/C(=O)OCC(=O)Nc2ccc(OC)c(Cl)c2)cc1Cl | inconclusive: 27.5%
9 | CC(=O)CSc1ccc(-c2nc3ccccc3[nH]2)cn1 | inactive: -10.7%
10 | COc1ccc(CCNC(=O)C2CCN(Cc3nc(-c4ccccc4C)oc3C)CC2)cc1OC | inactive: 0.09%
11 | COc1ccc(N2CCN(CC(O)COc3ccc4c(c3)CCC4)CC2)cc1 (stereo not drawn) | inactive: 0.179%
12 | Cc1ccc(-c2cc(C(=O)N3CC(C)OC(C)C3)c3ccccc3n2)o1 (stereo not drawn) | inconclusive: 25.3%
13 | O=C(OCn1ncc(Cl)c(Cl)c1=O)c1ccc(C(F)(F)F)cc1 | active: 30.8%
14 | CCOC1=C2[C@H](c3ccc(CC)cc3)N(S(=O)(=O)c3ccc(C)cc3)C[C@H]2C(C#N)(C#N)C(C#N)(C#N)C1 | active: 32.9%
15 | CCCNC(=O)c1ccccc1NC(=O)c1ccc2c(c1)NC(=O)C(C)S2 (stereo not drawn) | inconclusive: 26.2%
16 | O=C(c1cc(-c2ccncc2)nc2ccccc12)N1CCN(c2ccccn2)CC1 | inconclusive: 25%
17 | CSc1ccc(/C=N/NC(=O)c2ccccc2Cl)cc1 | inconclusive: 26.5%
18 | CCOC(=O)c1ccc(-c2ccc(/C=N/NC(=O)CN(c3cccc(C)c3)S(C)(=O)=O)o2)cc1 | active: 28.2%
19 | O=C(COc1ccc(Br)cc1)NNC(=O)c1cc(S(=O)(=O)N2CCOCC2)ccc1Cl | inactive: -2.03%
20 | Cc1ccc(NC(=O)c2ccc([N+](=O)[O-])o2)cc1S(=O)(=O)N1CCOCC1 | inconclusive: 27.9%
21 | CC1=NC(=O)C(N=Nc2cccc(C(=O)O)c2)N1c1ccccc1 (stereo not drawn) | inactive: -5.7%
22 | CCN(CC)S(=O)(=O)c1ccc(-c2nnc(SCC(=O)N3CCc4ccccc43)o2)cc1 | inconclusive: 30.1%
23 | COc1ccc2c(c1)[C@H]1[C@H](CO2)[C@H](c2ccccc2)[C@]2(C)C(=O)Nc3ccccc3C(=O)N12 | active: 66.6%
